Experimental data reported in PubChem BioAssay AID1452 (National Center for Advancing Translational Sciences (NCATS), 2008).
“And” between values parts separate entries of the source, which are not always exact repeats. Identical values can stand only once. About 190 (0.13%) of roughly 150,000 compounds were called active. This list was built around the results that the source calls inconclusive (neither active nor inactive); the mix of calls is not that of the screen. The call rests on the fitted dose curve; in most records, active means well fitted inhibition curve with a large enough effect; inconclusive means small, poorly fitted or top-dose-only effect; inactive means flat fitted curve, though single readings scatter. Potencies beside an inconclusive call are fits to weak or partial responses and may not hold up.

Biological target: Polyunsaturated fatty acid lipoxygenase ALOX12 (Homo sapiens) (UniProt P18054)
Assay: qHTS Assay for Inhibitors of 12-hLO (12-human lipoxygenase); further: nearly all actives have a fitted effect of over 55% in size
Conditions: purified 12-hLO, xylenol orange hydroperoxide absorbance; series mostly up to 57.1 µM; activity change, negative = inhibition: at the top concentration
Summary of the method: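 Hydroperoxide formation by human 12-lipoxygenase from 40 uM arachidonic acid was followed colorimetrically via ferric-xylenol orange complex, using the 573/405 nm absorbance ratio. Enzyme concentration was 150 nM, with 30 min reaction at room temperature.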
On the % scale 0 is the no-effect control and ±100 the full control effect; potency means the concentration at half of the fitted maximal effect; tags describe the fitted curve by direction and shape.

UniProt P18054, sequence (P18054 whole entry, looked up): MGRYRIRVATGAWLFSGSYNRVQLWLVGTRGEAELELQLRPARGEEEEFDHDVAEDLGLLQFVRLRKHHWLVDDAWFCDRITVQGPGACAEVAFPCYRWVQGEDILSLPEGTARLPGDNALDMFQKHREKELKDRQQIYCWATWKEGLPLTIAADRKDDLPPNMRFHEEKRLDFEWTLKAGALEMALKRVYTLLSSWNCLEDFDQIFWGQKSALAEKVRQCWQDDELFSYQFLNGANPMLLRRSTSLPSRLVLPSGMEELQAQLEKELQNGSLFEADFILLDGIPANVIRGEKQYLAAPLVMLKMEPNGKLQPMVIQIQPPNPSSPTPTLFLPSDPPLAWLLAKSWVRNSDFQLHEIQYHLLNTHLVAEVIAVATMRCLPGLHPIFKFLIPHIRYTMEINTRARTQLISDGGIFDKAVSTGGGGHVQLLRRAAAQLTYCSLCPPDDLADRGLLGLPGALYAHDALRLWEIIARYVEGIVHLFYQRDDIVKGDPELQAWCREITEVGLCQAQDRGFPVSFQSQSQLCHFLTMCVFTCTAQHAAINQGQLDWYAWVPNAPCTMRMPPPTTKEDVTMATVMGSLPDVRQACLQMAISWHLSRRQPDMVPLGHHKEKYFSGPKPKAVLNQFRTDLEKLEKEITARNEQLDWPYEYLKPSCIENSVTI

Structure (SMILES) | Potency | activity change, negative = inhibition
O=C(O)Cn1c(O)c(C=Nc2ccccc2)sc1=S | inactive and inconclusive: 22.4 µM [inhibitor, single point] | –
CC#CCN1c2ccccc2[C@]23C[C@@H](C(=O)OC)N(S(=O)(=O)c4ccc(C#N)cc4)C2=NC(C(=O)OC)=C(C(=O)OC)[C@H]13 | – | inactive: -1.52% [at 11.4 µM]
NC(=O)NC(=O)[C@H]1CCCC[C@@H]1C(=O)O | – | inactive: -2.81% [at 11.4 µM]
COc1cc(/C=C2/C(=O)NN(c3ccc(Cl)cc3)C2=O)ccc1OC(=O)c1ccco1 | inconclusive: 25.1 µM [inhibitor, partial curve] | –
CC(C)C1N=C2c3ccccc3N=C(SCC(=O)c3ccc(O)c(O)c3)N2C1=O (configuration not stated) | inconclusive: 1 µM [inhibitor, full curve] | –
Cc1ccc(S(=O)(=O)N2CCN(C(=O)c3c(C)nn(-c4ccccc4)c3Cl)CC2)cc1 | inconclusive: 20 µM [inhibitor, partial curve] | –
CC(C)CCNC(=O)Cc1c(C(=O)O)[nH]c2ccc(Cl)cc12 | – | inactive: -4.49%
COc1ccc(C(=O)N2CCC3(CCCN(c4ccccc4)C3)CC2)cc1 | – | inactive: -10.7%
O=C(Cn1cnc2c(cnn2-c2ccc(Cl)cc2)c1=O)NCCc1ccccc1 | – | inactive: -2.06%
COc1ccc2c(c1)OCC(Cc1ccc(O)c(OC)c1)C2=O (configuration not stated) | inconclusive: 0.282 µM [inhibitor, full curve, poor fit] | –
COC1=C(C(=O)c2ccccc2)C(=O)C2(CC=C(C)C)C[C@H](C(=O)OCC(F)(F)F)C(C)(C)[C@@]1(CC=C(C)C)C2=O (tested in a mixture with another compound) | – | inactive: 4.29%
C=CCNC(=S)N/N=C(\C)c1cccc(OC)c1 | inconclusive: 22.4 µM [inhibitor, single point] | –
CCCC(=O)N(c1ccc2oc(=O)sc2c1)S(=O)(=O)c1cccs1 | inconclusive: 17.8 µM [inhibitor, partial curve] | –
O=c1c2c3c(sc2ncn1/N=C/c1ccco1)CCCC3 | – | inactive: 6.08%
Cc1cccc(NC(=S)/N=C(\N)Nc2nc(C)c3ccc(C)cc3n2)c1 | inconclusive: 28.2 µM [inhibitor, single point] | –
CCCCN(C(=O)CN1CCOCC1)c1c(N)n(CC(C)C)c(=O)[nH]c1=O | – | inactive: -6.22%
Cc1cc(S(=O)(=O)N2CCCC2)c(C)s1 | – | inactive: -2.69%
CC(OC(=O)Cc1ccc(Cl)cc1)C(=O)NCCC1=CCCCC1 (configuration not stated) | – | inactive: -3.99%
CNC(=S)N/N=C/c1cn(CCOc2ccc(OC)cc2)c2ccccc12 | inconclusive: 22.4 µM [inhibitor, partial curve] | –
c1ccc(C2=Nc3ccccc3SC2c2nc3ccccc3[nH]2)cc1 (configuration not stated) | inconclusive: 31.6 µM [inhibitor, single point] | –
COc1ccc(-c2csc(Nc3cccnc3)n2)cc1 | inconclusive: 5.01 µM [inhibitor, single point] | –
O=C(O)c1ccccc1C(=O)NNc1ccc(Cl)cc1 | inconclusive: 39.8 µM [inhibitor, single point] | –
O=C(NCc1cn2ccsc2n1)c1c(F)cccc1Cl | – | inactive: 1.52%

Structure (SMILES) | Potency | activity change, negative = inhibition
CC(C)C(=O)N(c1cc2sc(=O)oc2c2ccccc12)S(=O)(=O)c1cccs1 | inconclusive: 7.94 µM [inhibitor, full curve] | –
O=C(O)c1ccccc1C(=O)Nc1n[nH]c(=S)s1 | inconclusive: 25.1 µM [inhibitor, partial curve] | –
O=C1CC(NCc2ccncc2)C(=O)N1c1ccc(Cl)cc1 (configuration not stated) | inconclusive: 35.5 µM [inhibitor, single point] | –
COc1ccc(C2CC(=O)N3CN(c4ccc(C)c(Cl)c4)CSC3=C2C#N)cc1OC (configuration not stated) | inconclusive: 31.6 µM [inhibitor, single point] | –
Cc1nnc(SCC(=O)Nc2cccc(S(=O)(=O)N(C)c3ccccc3)c2)s1 | – | inactive: -4.04%
N#CC1=C(N)SC(N)=C(C#N)C1c1ccc([N+](=O)[O-])cc1 | inconclusive: 25.1 µM [inhibitor, single point] | –
O=C(NC(NC(=S)Nc1cc(Cl)ccc1Cl)C(Cl)(Cl)Cl)c1ccco1 (configuration not stated) | inconclusive: 28.2 µM [inhibitor, single point] | –
CCNc1ccc(Br)cc(C(=O)/C=C/c2ccc(Cl)cc2Cl)c1=O | inconclusive: 1.41 µM [inhibitor, full curve] | –
COc1ccc2cc(CN(Cc3cccnc3)S(=O)(=O)c3ccccc3)c(=O)[nH]c2c1 | inconclusive: 14.1 µM [inhibitor, partial curve] | –
CCOP(=O)(OCC)c1nc(/C=C/c2ccccc2)oc1NCc1ccccc1 | inconclusive: 14.1 µM [inhibitor, partial curve] | –
O=[N+]([O-])c1ccc(S(=O)(=O)Cc2ccccc2)c2nonc12 | inconclusive: 3.16 µM [inhibitor, single point] | –
CN1/C(=C\C(=S)NC(=O)c2cccc(Br)c2)C(C)(C)c2ccccc21 | active: 14.1 µM | –
O=C(Nc1ccccc1N1CCCCC1)c1ccc(-c2cccc(Cl)c2)o1 | – | inactive: 4.66%
CCOC(=O)/C(=C\c1cn(C)c2ccccc12)[N+](=O)[O-] | – | inactive: 0.799%
O=c1[nH]n2c(=O)c3c([nH]c2c1N=Nc1cccc(Cl)c1)CCC3 | – | inactive: 2.04%
O=C(c1ccc(Cl)cc1Cl)C1(n2cncn2)Oc2ccccc2C1O (configuration not stated) | inconclusive: 20 µM [inhibitor, partial curve] | –
COc1cc(NC(=S)NCCSc2ccc(C)cc2)cc(OC)c1 | active: 20 µM | –
CCOC(=O)C1=C(CSc2nc(C)cc(C)c2C#N)OC(N)=C(C#N)C1c1ccccc1 (configuration not stated) | inconclusive: 20 µM [inhibitor, partial curve] | –
COc1ccc(C(=O)NC(=S)NNC(=O)c2c(-c3ccccc3)noc2C)cc1 | inconclusive: 28.2 µM [inhibitor, single point] | –
COc1ccccc1-n1c(SCC(=O)Nc2ccc(C)cc2)nc(O)cc1=O | active: 0.0794 µM | –
COc1cc(NS(=O)(=O)c2ccc(NC(=S)NC(=O)C(C)(C)C)cc2)nc(OC)n1 | inconclusive: 22.4 µM [inhibitor, single point] | –
CCN1c2ccccc2NC2C1C(C(C)=O)C(=O)N2c1ccc(Cl)cc1 (configuration not stated) | inconclusive: 14.1 µM [inhibitor, partial curve] | –
CC(=O)C(C(C)=O)C1(O)C(=O)c2ccccc2C1=O | inconclusive: 39.8 µM [inhibitor, single point] | –

Structure (SMILES) | Potency | activity change, negative = inhibition
Cc1cc([N+](=O)[O-])ccc1-c1ccc(C2Nc3ccccc3C(=O)N2O)o1 (configuration not stated) | inconclusive: 31.6 µM [inhibitor, single point] | –
CCOc1ccc(C(=O)NC(=S)Nc2ccc(N3CCOCC3)c(Cl)c2)cc1[N+](=O)[O-] | inconclusive: 8.91 µM [inhibitor, partial curve] | –
CCCCCC#CCC#CCC#CCC#CCCCC(=O)O | inconclusive: 3.16 µM [inhibitor, full curve] | –
CCOC(=O)C1=C(C)N(CC)C(=S)NC1c1ccc(Cl)cc1 (configuration not stated) | inconclusive: 35.5 µM [inhibitor, single point] | –
Cc1ccc(C)c(NC(=S)N2CCC(c3nc4ccccc4s3)CC2)c1 | inconclusive: 28.2 µM [inhibitor, single point] | –
O=C1NC(=Nc2ccccc2)S/C1=C\C=C\c1ccco1 | inconclusive: 17.8 µM [inhibitor, partial curve] | –
CCN(CC)c1ccc(/C=N/NC(=S)NCc2ccc(OC)cc2)cc1 | inconclusive: 31.6 µM [inhibitor, single point] | –
CC1CC2=C(CC1/C=N/NC(N)=S)C(C)(C)CCC2 (configuration not stated) | inconclusive: 28.2 µM [inhibitor, single point] | –
CCc1ccc2[nH]c(=O)c(CN(Cc3ccc(OC)cc3)Cc3nnnn3CCOC)cc2c1 | inconclusive: 15.8 µM [inhibitor, partial curve] | –
C/C(=N\NC(=S)NCCc1ccccc1)c1ccc(Cl)cc1 | inconclusive: 22.4 µM [inhibitor, partial curve] | –
Cc1cc(/C=N/n2c(COc3ccccc3C)nc3ccccc3c2=O)c(O)c([N+](=O)[O-])c1 | inconclusive: 1 µM [inhibitor, full curve, poor fit] | –
COC(=O)CSC1=C(C#N)C(=O)NC(c2ccccc2)S1 (configuration not stated) | inconclusive: 39.8 µM [inhibitor, single point] | –
N#CCc1nc(CSc2nc3ccccc3s2)cs1 | inconclusive: 39.8 µM [inhibitor, single point] | –
CCOC(=O)N1CCN(S(=O)(=O)c2cccs2)CC1 | – | inactive: 2.06%
C=CCn1c(=S)[nH]c2sc3c(c2c1=O)CCC3 | inconclusive: 22.4 µM [inhibitor, partial curve] | –
Fc1ccc(/C=N/n2c(-c3cccs3)n[nH]c2=S)cc1 | inconclusive: 12.6 µM [inhibitor, partial curve] | –
COc1ccc(-c2ccc(-c3cc(=O)oc4c(C(C)C)ccc(C)c34)cc2)cc1 | – | inactive: -1.24% [at 0.00818 µM]
O=[N+]([O-])c1cc(C(F)(F)F)cc([N+](=O)[O-])c1NN=C1CCCCC1 | inconclusive: 12.6 µM [inhibitor, partial curve] | –
CCCCSc1nc(C)cc(SCC(=O)N/N=C/c2cccc(OC)c2O)n1 | inconclusive: 3.55 µM [inhibitor, partial curve] | –
CC(C)C(=O)NC(c1ccccc1)c1cc([N+](=O)[O-])c2cccnc2c1O (configuration not stated) | inconclusive: 2.82 µM [inhibitor, full curve] | –
Cc1c(C(=O)N2CCCCC2)sc(NC(=O)C(C)C)c1C#N | – | inactive: -1.12%
